# Laboratory results published in patent US20070111970A1, “Inositol compounds and uses of same in the treatment of diseases characterized by abnormal protein folding or aggregation or amyloid formation, desposition, accumulation or persistence” (priority 2005, published 2007).
# At least one read-out could not be matched to a standard name with certainty.
# Target: T1, immobilized Aβ fibrils (Homo sapiens, UniProt P05067)
# T1 construct: Amyloid beta (Aβ) fibrils were prepared
# Test: FAC-MS % shift of free Aβ monomer on immobilized Aβ fibrils in presence of compounds
# Type: binding
# Conditions: Table 2; FAC-MS % shift of Aβ monomer indicator (1 μM); compounds at 1 and 10 μM
# T1 sequence (P05067 672-711 limits assumed): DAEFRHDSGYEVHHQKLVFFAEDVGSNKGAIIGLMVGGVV
row,SMILES,ABeta SHIFT [%]
1,CC1C(C(=O)Nc2ccccc2)CCCC1(C)C(=O)O (stereo not shown),1
2,Cc1cc[n+](CC(=O)OC2CC(C)CCC2C(C)C)cc1 (stereo not shown),1
3,CC1CCC(C(C)C)C(OC(=O)C[n+]2ccccc2)C1 (stereo not shown),1
4,CC1CCC(C(C)C)C(OC(=O)CN2CCOCC2)C1 (stereo not shown),1
5,CC1CCN(CC(=O)OC2CC(C)CCC2C(C)C)CC1 (stereo not shown),1
6,CC(C)(C)C1CC(C(=O)O)CC(C(C)(C)C)C1 (stereo not shown),1
7,CC(C)C1CCC(C)C(OC(=O)C2C3CCCCC32)C1 (stereo not shown),1
8,CCC(=O)OC1CCC(C)CC1C(C)(C)C(C)C (stereo not shown),1
9,CC(C)CC(=O)O[C@@H]1[C@@H](OC(=O)CC(C)C)[C@H](OC(=O)CC(C)C)[C@H](O)[C@H](OC(=O)CC(C)C)[C@H]1OC(=O)CC(C)C,2
10,O=C(O[C@@H]1[C@@H](OC(=O)c2ccccc2)[C@H](OC(=O)c2ccccc2)[C@H](O)[C@H](OC(=O)c2ccccc2)[C@H]1OC(=O)c1ccccc1)c1ccccc1,2
11,CC(=O)O[C@H]1[C@@H](OC(=O)CC(C)C)[C@H](OC(=O)CC(C)C)[C@@H](OC(=O)CC(C)C)[C@H](OC(=O)CC(C)C)[C@H]1OC(=O)CC(C)C,3
12,CC1CCCC(C)C1CO (stereo not shown),1
13,C=CC1CCC(O)C(O)C1 (stereo not shown),1
14,CC(=O)NC1CC(Cl)CCC1C (stereo not shown),1
15,CC1CCC(C(C)(C)C)C(O)C1 (stereo not shown),1
16,CC1CCC(C(C)C)C(OC(=O)NN)C1 (stereo not shown),1
17,CC1CCC(C(C)C)C(OC(=O)C(O)O)C1 (stereo not shown),1
18,COC(=O)[C@@H]1C[C@H](O)C[C@H](C(=O)OC)C1,1
19,CC1CCC(C(C)CS)CC1S (stereo not shown),1
20,CC(O)C#CC1(O)C(C)CCCC1(C)C (stereo not shown),1
21,CC1CC(C)C(C(=O)c2ccccc2)C(O)C1 (stereo not shown),1
22,OCC1(CO)CCCC(CO)(CO)C1O,1
23,COC1CCC(C(C)=O)C(O)C1 (stereo not shown),1
24,CC1CCC(C)C(CCCCS(=O)(=O)O)C1 (stereo not shown),1

row,SMILES,ABeta SHIFT [%]
1,Cc1ccc(C(=O)OC2CC(C)CCC2C(C)C)cc1C (stereo not shown),2
2,CC1CCC(C(C)C)C(OC(=O)c2ccncc2)C1 (stereo not shown),1
3,CC1CCC(C(C)C)C(OCC(O)CNC(C)C)C1 (stereo not shown),1
4,CC1CCC(C(C)C)C(OCC(O)CN2CCCCC2)C1 (stereo not shown),1
5,O=C(O)C1CC(C(=O)O)C(C(=O)O)CC1C(=O)O (stereo not shown),1
6,CC1CCC(COC(=O)CN2CCCCC2)C(C)C1 (stereo not shown),1
7,CC1CC(OC(=O)CN2CCCCC2)CC(C)(C)C1 (stereo not shown),1
8,C=CC1CCC(O)C(N(C)C(=S)Nc2ccccc2)C1 (stereo not shown),1
9,CC1CCC(C(C)C)C(OC(=O)c2ccco2)C1 (stereo not shown),2
10,CC1CCCC(N/C=C2\C(=O)Nc3ccccc32)C1C (stereo not shown),2
11,CC1CCC(COC(=O)C[N+]2(C)CCCCC2)C(C)C1 (stereo not shown),2
12,CC1CCC(C(C)C)C(OCC[N+](C)(C)C)C1 (stereo not shown),2
13,CC1CCC(C(C)C)C(OCCC[N+](C)(C)C)C1 (stereo not shown),2
14,CC[N+](CC)(CC)CCCOC1CC(C)CCC1C(C)C (stereo not shown),2
15,CC1CCC(C(C)C)C(OC(=O)NC(=O)C(F)(F)F)C1 (stereo not shown),2
16,CC1CCCC(N2CNC(=S)NC2)C1C (stereo not shown),2
17,CC1CCCC(N2CNc3nc4ccccc4n3C2)C1C (stereo not shown),2
18,CC1CCCC(NC(=O)c2n[nH]c(=O)c3ccccc23)C1C (stereo not shown),2
19,CC1CC(NS(=O)(=O)c2cccs2)CC(C)(O)C1 (stereo not shown),2
20,CC1CCCC(NC(=O)Cc2cn(C)c3ccccc23)C1C (stereo not shown),2
21,CC1CCCC(NC(=O)c2cc3sccc3n2C)C1C (stereo not shown),2
22,CC1CCCC(NC(=O)c2csc3c2CCCC3)C1C (stereo not shown),2
23,CC1CCCC(NC(=O)Nc2cccs2)C1C (stereo not shown),2
24,CC1CCCC(NC(=O)Cn2cc3c(n2)CCCC3)C1C (stereo not shown),1

row,SMILES,ABeta SHIFT [%]
1,CC1CCCC(NC(=O)c2ccc3snnc3c2)C1C (stereo not shown),1
2,Cc1nn(CC(=O)NC2CCCC(C)C2C)c2ccccc12 (stereo not shown),1
3,CC(=O)c1[nH]c(C)c(C(=O)NC2CCCC(C)C2C)c1C (stereo not shown),1
4,CC1CCCC(n2c(=S)[nH]c3ccccc3c2=O)C1C (stereo not shown),1
5,CC1CCCC(n2cnc3cc(C(=O)O)ccc32)C1C (stereo not shown),1
6,CC1CCCC(NC(=O)c2cc3c(s2)CSC3)C1C (stereo not shown),1
7,Cc1cc(C(=O)NC2CCCC(C)C2C)c2ccccc2n1 (stereo not shown),1
8,CC1CCCC(NC(=O)c2ccccc2C(=O)O)C1C (stereo not shown),2
9,Nc1ncnc2c1ncn2C1CCC(CO)C(O)C1 (stereo not shown),1
10,CC1CCC(C(C)C)C(OC(=O)CSC#N)C1 (stereo not shown),1
11,CC1CCCC(NC(=O)CSc2nnnn2C)C1C (stereo not shown),1
12,CC1CCC(c2ccc(O)cc2)(c2ccc(O)cc2)CC1C (stereo not shown),1
13,CC1CCCC(NC(=O)CSc2nccc(O)n2)C1C (stereo not shown),1
14,CC1CCCC(NC(=O)c2ccc(C#N)cc2)C1C (stereo not shown),1
15,CC1CCCC(NC(=O)CSc2nnc(N)[nH]2)C1C (stereo not shown),1
16,COc1ccc(NC(=S)NC2CCCC(C)C2C)cc1 (stereo not shown),1
17,Cc1cccc(NC(=S)NC2CCCC(C)C2C)c1 (stereo not shown),1
18,CC1CCCC(NC(=O)/C(C#N)=C/c2ccccc2)C1C (stereo not shown),1
19,CC1CCCC(NC(=O)CCl)C1C (stereo not shown),1
20,CC1CCCC(NC(=S)NC(=O)c2ccco2)C1C (stereo not shown),1
21,CC1CCCC(NC(=O)CSc2cccc[n+]2[O-])C1C (stereo not shown),1
22,CC1CCCC(NC(=O)COc2ccccc2)C1C (stereo not shown),1
23,CC1CCCC(NC(=S)NC(=O)C2CC2)C1C (stereo not shown),1
24,CC1CCCC(NC(=S)NCc2ccccc2)C1C (stereo not shown),1

row,SMILES,ABeta SHIFT [%]
1,CCCCNC(=S)NC1CCCC(C)C1C (stereo not shown),1
2,CC1CCCC(NC(=O)CSc2ccc(F)cc2)C1C (stereo not shown),1
3,CC1CCCC(NC(=S)NN)C1C (stereo not shown),1
4,CC(Cl)C(=O)NC1CCCC(C)C1C (stereo not shown),1
5,CC1CCCC(NC(N)=O)C1C (stereo not shown),1
6,CC1CCCC(NC(=O)NC(=O)CCl)C1C (stereo not shown),1
7,Cc1nnc(SCC(=O)NC2CCCC(C)C2C)n1N (stereo not shown),1
8,CC1CCCC(NC(=O)c2ccc(F)cc2F)C1C (stereo not shown),1
9,CC1CCCC(NC(=O)c2ccccc2)C1C (stereo not shown),1
10,CC(=O)Nc1cccc(C(=O)NC2CCCC(C)C2C)c1 (stereo not shown),1
11,CC1CCCC(NC(=O)c2ccc3ccccc3c2)C1C (stereo not shown),1
12,CC1CCCC(N2CC(C(=O)O)CC2=O)C1C (stereo not shown),1
13,COc1ccc(C(=O)NC2CCCC(C)C2C)cc1OC (stereo not shown),1
14,Cc1cc(C)cc(NC(=S)NC2CCCC(C)C2C)c1 (stereo not shown),1
15,CC1CCCC(NCc2ccc3c(c2)OCO3)C1C (stereo not shown),1
16,CCc1ccc(C(=O)NC2CCCC(C)C2C)cc1 (stereo not shown),1
17,Cc1ccc(NC(=S)NC2CCCC(C)C2C)cc1C (stereo not shown),1
18,CC1CCCC(NC(=O)COC(=O)c2cccs2)C1C (stereo not shown),1
19,Cc1csc(SCC(=O)NC2CCCC(C)C2C)n1 (stereo not shown),1
20,CCOCCCNC1CC(C)CC(C)(C)C1 (stereo not shown),1
21,CC1CCC(C(C)C)C(NCCCOCC2CC2)C1 (stereo not shown),1
22,CC1CCCC(NC(=O)CSc2nnc[nH]2)C1C (stereo not shown),1
